Out of some 310,000 compounds screened, about 14,000 (4.5%) showed an effect of 50% or more. Effects have a minus sign here. Some of the results follow.
Each compound was assayed against human ether-à-go-go-related gene (hERG) potassium channel (human, UniProt Q12809) (assay: primary screen, population patch clamp on CHO cells stably expressing hERG).
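Note: peak tail current of the secondary pulse compared with the same well before compound.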

human ether-à-go-go-related gene (hERG) potassium channel, sequence (Q12809 whole entry, looked up): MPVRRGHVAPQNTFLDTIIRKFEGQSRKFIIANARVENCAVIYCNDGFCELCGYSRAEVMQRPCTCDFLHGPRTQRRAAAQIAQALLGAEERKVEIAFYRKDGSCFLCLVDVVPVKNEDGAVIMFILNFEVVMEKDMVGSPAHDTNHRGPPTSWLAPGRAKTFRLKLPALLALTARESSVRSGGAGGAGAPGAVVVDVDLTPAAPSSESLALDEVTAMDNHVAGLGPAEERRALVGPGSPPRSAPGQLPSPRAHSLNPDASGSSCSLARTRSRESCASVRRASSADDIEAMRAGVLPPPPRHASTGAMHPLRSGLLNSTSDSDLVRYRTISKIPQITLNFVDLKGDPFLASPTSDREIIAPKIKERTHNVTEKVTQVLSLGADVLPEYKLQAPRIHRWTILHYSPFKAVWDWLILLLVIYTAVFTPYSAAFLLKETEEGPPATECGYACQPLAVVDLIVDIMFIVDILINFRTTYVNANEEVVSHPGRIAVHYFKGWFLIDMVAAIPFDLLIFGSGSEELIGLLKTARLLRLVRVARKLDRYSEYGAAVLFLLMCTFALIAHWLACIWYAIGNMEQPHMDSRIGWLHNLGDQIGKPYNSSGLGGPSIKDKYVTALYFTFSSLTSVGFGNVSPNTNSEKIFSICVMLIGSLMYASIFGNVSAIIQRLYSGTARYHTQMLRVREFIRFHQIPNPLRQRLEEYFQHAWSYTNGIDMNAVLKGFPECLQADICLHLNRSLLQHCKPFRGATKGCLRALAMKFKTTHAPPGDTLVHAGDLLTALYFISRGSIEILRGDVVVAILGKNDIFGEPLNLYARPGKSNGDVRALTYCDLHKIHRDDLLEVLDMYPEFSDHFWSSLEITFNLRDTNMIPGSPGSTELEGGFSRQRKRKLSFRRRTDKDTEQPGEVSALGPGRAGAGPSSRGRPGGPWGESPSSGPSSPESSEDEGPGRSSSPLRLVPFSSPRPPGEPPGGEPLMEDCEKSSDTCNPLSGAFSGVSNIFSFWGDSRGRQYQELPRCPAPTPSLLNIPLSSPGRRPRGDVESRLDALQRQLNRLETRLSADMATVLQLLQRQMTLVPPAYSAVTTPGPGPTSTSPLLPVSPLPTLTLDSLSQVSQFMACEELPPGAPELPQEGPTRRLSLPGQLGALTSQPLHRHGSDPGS

Row | Structure (SMILES) | hERG current change (%, negative = inhibition) at 10uM [%]
1 | O=C(c1cnn2c(C(F)(F)F)cc(-c3ccc(F)cc3)nc12)N1CCc2ccccc2C1 | -3.83
2 | S=C(NNc1cccc(Cl)c1)NC1CCCCC1 | 5.41
3 | CC(C)c1ccc(NC(=S)NC2CCCCCC2)cc1 | -0.889
4 | COc1cccc(CNC(=O)C2CCN(S(=O)(=O)c3cccc4nonc34)CC2)c1 | 19
5 | CCNC(=O)C(=O)NCC1CCCN1S(=O)(=O)c1cccs1 (stereo not shown) | 3.16
6 | CCCCCCNC(=O)C(C#N)c1nc2ccccc2nc1N1CCCC1 (stereo not shown) | 5.39
7 | COc1ccc2c(c1OC)C(=O)OC2c1c(O)n(C2CCCCC2)c(=O)[nH]c1=O (stereo not shown) | -68.8
8 | COCCNC(=O)c1onc(CSc2nc3ccccc3[nH]2)c1C(=O)NCCOC | -14.3
9 | CCc1c(C)nc2ncnn2c1Nc1ccc(C)c(C)c1 | -17.6
10 | COc1ccc2[nH]cc(CCNC(=O)C3CCCO3)c2c1 (stereo not shown) | 9.17
11 | CC1=C(C(=O)Nc2ccccc2C(=O)N2CCCCC2)SCCO1 | 12.3
12 | O=C(O)C(=O)O.O=C(c1cccc(F)c1)N1CCN(Cc2ccc3c(c2)OCO3)CC1 | 6.43
13 | CS(=O)(=O)N(CC(=O)Nc1ccccc1Br)Cc1ccccc1 | 8.95
14 | CCOC(=O)c1oc2c(CN3CCN(C)CC3)c(O)ccc2c(=O)c1-c1ccccc1OC | 6.47
15 | COCCN(Cc1cc2cc(C)ccc2nc1Cl)C(=O)Nc1ccccc1OC | 8.78
16 | C/C=C/c1ccc(OCCCNC)c(OC)c1.O=C(O)C(=O)O | -44.6
17 | COc1ccc(C(=O)Nc2ccc(-c3nnn(CC(=O)NCc4ccco4)n3)cc2)cc1 | -15.5
18 | Fc1ccc(CN2CCSCC2)cc1F | 0.889
19 | COC(=O)C1(C)CCc2cc(OC)ccc2C1=O (stereo not shown) | -3.11
20 | COc1ccc(OC)c(CCNC(=O)Cn2sc3nc(C)cc(C)c3c2=O)c1 | -0.416
21 | COc1ccc(C(=O)Oc2ccc(C(=S)N3CCOCC3)cc2)cc1 | 23.1
22 | Cn1c(=O)c2c([nH]c(=S)n2Cc2ccc(Cl)cc2)n(C)c1=O | 17

Row | Structure (SMILES) | hERG current change (%, negative = inhibition) at 10uM [%]
23 | CCOc1ccc(N(CC(=O)N2CCN(c3ccccc3OC)CC2)S(=O)(=O)c2ccc(F)cc2)cc1 | -15.1
24 | O=C1/C(=C\c2cccs2)N=C(c2cccs2)N1Nc1ccccc1 | 13.5
25 | CC1CC(C)CN(S(=O)(=O)c2cccc3nsnc23)C1 (stereo not shown) | 4.61
26 | Cc1c(/C=N/NC(=O)CNc2ccccc2)c2ccccn2c1C(=O)c1ccccc1 | -8.97
27 | Cc1nc(SCC(=O)NCCc2ccccc2)c2c(=O)n(C)c(=O)n(C)c2n1 | 3.58
28 | CC(=O)C1=C(O)C(=O)N(CCCn2ccnc2)C1c1ccc(C)cc1 (stereo not shown) | -10.4
29 | Cc1ccsc1C(=O)N1CC=C(c2ccccc2)CC1 | -15.4
30 | O=C(CCNC(=O)c1ccccc1Cl)Nc1ccncc1 | 14.9
31 | CCCC(=O)Nc1cc(S(=O)(=O)N(CC)CC)ccc1Cl | 2.34
32 | COc1ccccc1CN1CC(C(=O)NCc2nccn2C)CCC1=O (stereo not shown) | 20.8
33 | O=C1Nc2ccccc2C1=Nc1ccc(Br)cc1 | 9.45
34 | Cc1ccc(OCC(=O)N2c3ccccc3NC(=O)C2(C)C)c([N+](=O)[O-])n1 | 0.177
35 | CCN(CC(=O)NCC(=O)Nc1cccc(C)c1C)Cc1ccccc1 | 5.6
36 | Cn1c(SCC(=O)O)nnc1-c1ccc(NC(=O)c2ccc(Cl)c(Cl)c2)cc1 | 7
37 | Cc1ccccc1-c1n[nH]c(=S)n1/N=C/c1c(C)nn(-c2ccccc2)c1C | 6.33
38 | COc1ccc(CC(=O)Nc2cccc(-c3ccc4nnc(C)n4n3)c2)cc1 | -54.1
39 | O=C(c1cn(-c2ccccc2)nc1-c1ccc(Cl)cc1)N1CCOCC1 | -28.4
40 | CCc1ccc2c(COC(=O)C3CSC4(C)CCC(=O)N34)cc(=O)oc2c1 (stereo not shown) | -61.1
41 | CCOC(=O)C1=C(N)OC2=C(C(=O)CC(C)(C)C2)C1c1cccnc1 (stereo not shown) | -29.5
42 | CCc1nnc(N/N=C\c2ccc(OC(C)=O)c(OC)c2)n1N.Cl | 12.6
43 | Cc1ccc2c(c1)cc(C)c1nnc(SCC(=O)NCc3ccco3)n12 | -41.3
44 | COc1cc(NC(=O)COC(=O)/C=C/c2c(C)nn(C3CCS(=O)(=O)C3)c2Cl)cc(OC)c1OC (stereo not shown) | 9.21

Row | Structure (SMILES) | hERG current change (%, negative = inhibition) at 10uM [%]
45 | COc1ccc(CCNC(=O)CSc2ccsc2[N+](=O)[O-])c(OC)c1 | 3.81
46 | CN(C)c1ccc(/C=N/NC(=O)c2ccc(CN3CCOCC3)cc2)cc1Br | -47.5
47 | COc1cc(OC)c(/C=N/NC(=O)Cn2nc([N+](=O)[O-])cc2C)c(OC)c1 | 3.01
48 | Cc1ccc(N2C(=O)c3ccccc3C2C(=O)c2ccc(C)c(C)c2O)cc1 (stereo not shown) | 2.75
49 | Cc1ccc2c(c1)NC(=O)CC(c1ccccc1)=N2 | -23.6
50 | CC(OC(=O)c1cccs1)C(=O)Nc1nc(-c2ccccc2)cs1 (stereo not shown) | 26.3
51 | Nc1nc(COC(=O)C2CC(=O)N(CCc3ccccc3)C2)nc(Nc2ccccc2)n1 (stereo not shown) | -52.2
52 | CCCc1nc2oc3ccccc3c(=O)c2c(=O)n1-c1ccccc1 | -1.84
53 | COc1ccc2nc(NC(=O)c3cnccn3)sc2c1 | 8.9
54 | COc1ccc(CNC(=O)Cc2csc(Nc3nc(=S)[nH]c4ccccc34)n2)cc1 | 0.211
55 | CNC(=O)c1sc(Nc2ccc(OCc3ccccc3)cc2)nc1C | 7.65
56 | O=C(CCc1nc2ccccc2c(=O)[nH]1)N1CCN(S(=O)(=O)c2cccc(F)c2)CC1 | -5.05
57 | CCCCc1nnc(NC(=O)CS(=O)(=O)Cc2ccccc2)s1 | 11.5
58 | O=S(=O)(c1ccc2ccccc2c1)N1CCN=C1SCc1cccnc1 | -43.9
59 | O=C(CN1CCN(c2ccccc2F)CC1)c1ccc2cc[nH]c2c1 | -82.9
60 | Cl.OC(COc1ccccc1)CN1C2=NCCCN2c2ccccc21 (stereo not shown) | -67
61 | COc1cc(C(=O)N2CCN(S(=O)(=O)c3ccc(F)cc3)CC2)cc(OC)c1OC | -1.48
62 | Cc1cc(C)cc(NS(=O)(=O)c2c(C)[nH]c(=O)[nH]c2=O)c1 | 24.4
63 | COc1cccc(NC(=O)c2ccc3c(c2)N(CC(=O)N2CCOCC2)C(=O)C(C)(C)O3)c1 | -5.35
64 | Cc1sc2ncn(CC(=O)N3CCN(c4ccc(F)cc4)CC3)c(=O)c2c1S(=O)(=O)N1CCOCC1 | -64.3
65 | Cl.O=C(O)c1cc(S(=O)(=O)N2CCN(C(c3ccccc3)c3ccccc3)CC2)ccc1Cl | 14.7
66 | O=C(Nc1cccc(CNCCc2c[nH]c3ccccc23)c1)c1ccccc1Cl.O=C(O)C(=O)O | -17.7

Row | Structure (SMILES) | hERG current change (%, negative = inhibition) at 10uM [%]
67 | Cc1ccc(Cl)cc1NC(=S)NCCCSC1CCCCC1 | 9.82
68 | COc1ccccc1Nc1nc(-c2sc(NC(=O)c3ccco3)nc2C)cs1 | 6.43
69 | Cc1ccc(NC(=O)CCC(=O)N2CCOc3ccccc32)c(Cl)c1 | -8.08
70 | O=C(COc1ccccc1[N+](=O)[O-])N1CCCc2ccccc21 | 7.26
71 | COc1ccc(CCn2c(=O)c3cccnc3n(Cc3cccc([N+](=O)[O-])c3)c2=O)cc1OC | 0.296
72 | CC(C)[C@H](NC(=O)N1c2ccccc2NC(=O)[C@@H]1C(C)C)C(=O)N1CCC(C(=O)O)CC1 | -4.78
73 | CC(=O)c1ccc(-n2c(C)ccc2-c2ccccc2)cc1 | 1
74 | O=C(CCn1cnc2ccccc21)N/N=C/c1ccccc1O | -11.7
75 | CCOC(=O)C1=C(O)C(=O)N(Cc2ccc(C(C)(C)C)cc2)CC1 | 13.1
76 | CS(=O)(=O)c1ccc(C(=O)Nc2ccccc2N2CCOCC2)c(Cl)c1 | -3.63
77 | COc1ccc(C(=O)CC(=O)c2ccc(C)cc2)c(O)c1 | 15.5
78 | Cc1sc(NC(=S)NC(=O)C(C)(C)C)c(C(N)=O)c1C | 12.8
79 | CCOC(=O)C1=C(CSc2nc(C)cc(C)c2C#N)OC(N)=C(C#N)C1c1cccs1 (stereo not shown) | -4.99
80 | CCOC(=O)c1ccc(N2C(=O)CC(N3CC=C(c4ccc(F)cc4)CC3)C2=O)cc1 (stereo not shown) | 6.65
81 | COCCn1c(N)c(C(=S)NC(=O)c2cccs2)c(=O)[nH]c1=O | 5.26
82 | Cc1ccc(C)c(C(=O)CN2C(=O)C(=O)N(C3CCCC3)C2=O)c1 | 1.63
83 | O=S(=O)(Nc1cc(S(=O)(=O)N2CCOCC2)ccc1NCC1CCCO1)c1ccccc1 (stereo not shown) | -11.7
84 | COc1ccc(C2c3ccc4ccccc4c3Oc3ncn(CCCN(C)C)c(=N)c32)cc1 (stereo not shown) | -76.4
85 | COc1ccc(S(=O)(=O)N2CCC(C(=O)N[C@H](C(=O)NCc3ccco3)C(C)C)CC2)cc1 | 18.6

— PMC4336329 (PLoS ONE, 2015)
